The campaign covered roughly 94,000 compounds. About 6,200 (6.6%) were called active. Inconclusive means that the source gave no clear call. Such entries were picked first, then a sample of the others. The call rests on the fitted dose curve; in most records, active means well fitted inhibition curve with a large enough effect; inconclusive means small, poorly fitted or top-dose-only effect; inactive means flat fitted curve, though single readings scatter. Where the call is inconclusive, the potency comes from a doubtful curve fit.
Experiment: Cytotoxic Profiling in HEK 293 Cell Line of Diverse Libraries Using Quantitative High-Throughput Screening; further: nearly all actives have a fitted effect of over 60% in size
Settings: HEK 293 viability, ATP luminescence (CellTiter-Glo), 48-72 h; series mostly up to 115 µM
Outline: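 Luminescence from cellular ATP, measured with CellTiter-Glo, indicates HEK 293 viability. Cells plated at 250 cells/well are treated with compound for 48 or 72 hr at 37 degree Celsius before reagent addition.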
In the case of `COCc1cc(CNC(=O)CC(c2ccccc2)c2ccccc2Cl)[nH]n1` (stereo not drawn), the Potency is reported as inconclusive: 79.4 µM [inhibitor, partial curve, poor fit].
For `Cc1cn2nc(C(=O)NC3CCCCCC3)cc2c(N2CCSCC2)n1`, the Potency was active: 44.7 µM.
In the case of `CN1CCN(Cc2ccc(CC3CCN(C(=O)c4ccc5cc[nH]c5c4)CC3)cc2)CC1`, the Potency is reported as inconclusive: 50.1 µM [inhibitor, partial curve, poor fit].
For `COc1ccc(-c2nc(C3CC3)nc3c2CCN(Cc2cncs2)CC3)cc1`, the Potency was “inactive”.
With `COc1ccc(-c2noc([C@@H]3CCCN3C(=O)CCc3ccccc3)n2)cc1` the Potency was inconclusive: 50.1 µM [inhibitor, partial curve, poor fit].
For `CCn1cc(-c2ccc(OC)cc2)cc1C(=O)N1CCC(C)CC1`, the Potency was inconclusive: 50.1 µM [inhibitor, partial curve, poor fit].
With `O=C(OCc1ccccc1)N1CCOCC12CCN(Cc1nccs1)CC2` the Potency was inconclusive: 50.1 µM [inhibitor, partial curve, poor fit].
With `CC1(c2noc(C3CCOCC3)n2)CCN(Cc2ccc(Cl)cc2F)CC1` the Potency was inconclusive: 44.7 µM [inhibitor, partial curve].
For `O=C(Nc1cccc(F)c1)[C@@H]1C[C@@H](c2cccc(C(F)(F)F)c2)N(CC2CCOCC2)C1`, the Potency was active: 22.4 µM.
In the case of `CC(C)Cc1ccc(S(=O)(=O)N2CCCC(Cn3cnc4cccnc43)C2)cc1` (stereo not drawn), the Potency is reported as active: 44.7 µM.
For `Cc1ccc(NC(=O)C2CCc3nnc(CN[S+](C)(=O)[O-])n32)cc1` (stereo not drawn), the Potency was “inactive”.
For `Cc1ccc(C(=O)N2CCc3nnc([C@@H]4C[C@@H](O)CN4C)n3CC2)cn1`, the Potency was “inactive”.
For `Cc1cc(C)c(CNC(=O)c2nc(-c3ccc(CO)cc3)cc3c2ccn3C)c(=O)[nH]1`, the Potency was inconclusive: 56.2 µM [inhibitor, full curve].
For `CC(C)Cc1cn(C2CCN(Cc3cc4c(cc3Cl)OCO4)CC2)nn1`, the Potency was inconclusive: 50.1 µM [inhibitor, partial curve, poor fit].
For `CNC(=O)N1CCCC(c2nc(CCOCC3CCCC3)no2)C1` (stereo not drawn), the Potency was inconclusive: 50.1 µM [inhibitor, partial curve, poor fit].
For `CC(C)N1CC(C(=O)NCCc2ccc(F)cc2)NC1=O` (stereo not drawn), the Potency was “inactive”.
In the case of `O=C(CC1CCCN(c2cnn(CC3CC3)c(=O)c2)C1)NCc1ccc(Cl)cc1` (stereo not drawn), the Potency is reported as inconclusive: 35.5 µM [inhibitor, partial curve].
With `COc1ccc(CC(=O)N2CCC(c3n[nH]c(=O)n3-c3ccc(C)cc3)CC2)cc1` the Potency was “inactive”.
In the case of `COc1cccc(CNC(=O)C2CCCN(c3ccnc4ccnn34)C2)c1` (stereo not drawn), the Potency is reported as inconclusive: 31.6 µM [inhibitor, partial curve].
With `CCOc1ccccc1NC(=O)N1c2ccccc2CC1c1nc(C(C)C)no1` (stereo not drawn) the Potency was inconclusive: 56.2 µM [inhibitor, partial curve, poor fit].
In the case of `COCCOCC(=O)NCC12CCCC=C1NC(=O)CC2` (stereo not drawn), the Potency is reported as “inactive”.
For `CCS(=O)(=O)N1CCC2(CC1)CN(C1CCC1)CC2COC` (stereo not drawn), the Potency was inconclusive: 89.1 µM [inhibitor, single point].
In the case of `CC[C@H]1CN(S(=O)(=O)c2c(C)noc2C)CC[C@H]1CC(=O)NCc1cccc2ccccc12`, the Potency is reported as active: 22.4 µM.
For `Cc1nc(C2CCCCN2C(=O)Nc2ccccc2F)n[nH]1` (stereo not drawn), the Potency was “inactive”.
In the case of `Cc1ccc([S+](=O)([O-])N2CCC(C(=O)N3CCC(c4nc5ccncc5[nH]4)C3)CC2)cc1` (stereo not drawn), the Potency is reported as “inactive”.
For `COCCNC(=O)[C@@H]1C[C@@H](O)CN1C1CCN(C(=O)COc2ccc(F)cc2)CC1`, the Potency was “inactive”.
In the case of `O=C1N[C@@H]2CCN(S(=O)(=O)c3ccc(Cl)cc3)[C@@H]2C(=O)N1c1ccc(Oc2ccccc2)cc1`, the Potency is reported as inconclusive: 35.5 µM [inhibitor, partial curve].
With `COCCN1C(=O)[C@@H]2C[C@@H](CN2C)Oc2ccccc21` the Potency was “inactive”.
With `COc1ccc(C2Cn3cnc(-c4nc(-c5ccc6c(c5)OCO6)no4)c3CO2)cc1` (stereo not drawn) the Potency was “inactive”.
In the case of `O=C(NCc1ccc(F)cc1)c1nc(-c2ccccc2)c2ccccn12`, the Potency is reported as inconclusive: 79.4 µM [inhibitor, partial curve, poor fit].
With `Cc1nnc(-c2cc(N3CCN(c4ccccn4)CC3)ccn2)n1-c1ccccc1` the Potency was inconclusive: 100 µM [inhibitor, partial curve].
For `O=C1Nc2ccc(-c3ccccc3F)cc2C(=O)N2CCN(C(=O)c3cccs3)C[C@H]12`, the Potency was inconclusive: 79.4 µM [inhibitor, partial curve, poor fit].
For `NCC1CCCN(Cc2ccc(-c3nc(-c4cccnc4)cc(=O)[nH]3)cc2)C1` (stereo not drawn), the Potency was inconclusive: 89.1 µM [inhibitor, partial curve, poor fit].
In the case of `Cc1ccc(C(=O)N[C@H]2CO[C@H]3[C@@H]2OC[C@@H]3Nc2nccc(-c3cccs3)n2)cc1`, the Potency is reported as “inactive”.
For `Cc1cnccc1CN(C)Cc1cc2n(n1)CCNC2`, the Potency was “inactive”.
With `CCOc1ccc(CC(=O)N2c3ccccc3CC2c2nc(C3CC3)no2)cc1OCC` (stereo not drawn) the Potency was inconclusive: 50.1 µM [inhibitor, partial curve, poor fit].
In the case of `CCOc1ccccc1C1NC(=O)N(CC(=O)Nc2c(C)cccc2CC)C2=C1C(=O)OC2` (stereo not drawn), the Potency is reported as “inactive”.
For `O=C(O)CCC1CCCN(S(=O)(=O)c2ccccc2F)C1` (stereo not drawn), the Potency was “inactive”.
For `COc1ccc(CCc2nc(C3CC(=O)N(c4ccc(F)c(Cl)c4)C3)no2)cc1` (stereo not drawn), the Potency was inconclusive: 56.2 µM [inhibitor, partial curve, poor fit].
With `O=C(Nc1ccc(C2(C(=O)N3CCN(c4ccccn4)CC3)CCCCC2)cc1)C1CC1` the Potency was inconclusive: 50.1 µM [inhibitor, partial curve, poor fit].
For `Cc1cnc(-c2ccccc2)n1C1CCCN(S(=O)(=O)c2ccccc2)C1` (stereo not drawn), the Potency was inconclusive: 39.8 µM [inhibitor, partial curve].
In the case of `O=C(c1ccc(C(F)(F)F)cc1)N1CCN(Cc2ccccc2-c2cccnc2)CC1`, the Potency is reported as inconclusive: 35.5 µM [inhibitor, partial curve].
In the case of `O=C(NCCc1cccnc1)c1ccc(-c2nnc3ccc(NC(=O)C4CCC4)cn23)cc1`, the Potency is reported as inconclusive: 35.5 µM [inhibitor, partial curve, poor fit].

Source: PubChem BioAssay AID1345083 (National Center for Advancing Translational Sciences (NCATS), 2018)
Potency means the concentration at half of the fitted maximal effect; tags describe the fitted curve by direction and shape.
